Some of the results follow. Single values are uncertain, as repeats are few or missing.
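Note: cell number obtained by counting DAPI-stained nuclei in high-throughput microscope images with image analysis software, screen run in 1,536-well plates.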

This test has as its system WM115. Nature of the test: cell count relative to DMSO control; melanoma cells; higher = more viable cells. Particulars: library dose: low library concentration; 72 h.
As to `O=C(Nc1cc(C(F)(F)F)cc(C(F)(F)F)c1)c1cc(Cl)ccc1O` + O=c1[nH]nc(Sc2ncc([N+](=O)[O-])s2)n1-c1ccc2c(c1)OCCO2 [BI78D3] (first compound 0.016 µM, partner dose 0.2 µM), the cell count worked out at 101%.
`O=C(O)[C@@H]1[O][Sb](=[O])([O][Sb]2(=[O])[O][C@H]([C@H](O)CO)[C@H](O)[C@H](C(=O)O)[O]2)[O][C@H]([C@H](O)CO)[C@@H]1O` (stereo partly drawn) [stibogluconate] + Nc1cccc2c1CN(C1CCC(=O)NC1=O)C2=O [lenalidomide] (first compound 2 µM, partner dose 1 µM) yielded a cell count of 98.9%.
Consider `Cn1nnc2c(C(N)=O)ncn2c1=O` [temozolomide] + CN(NC(=O)CC(=O)NN(C)C(=S)c1ccccc1)C(=S)c1ccccc1 [STA4783] (first compound 2 µM, partner dose 0.006 µM), for which the cell count turned out to be 87.8%.

(Values after the supplement of paper PMC4604168 (melanoma cell lines).)
